Results taken from PubChem BioAssay AID1346428 (National Center for Advancing Translational Sciences (NCATS), 2018).
The campaign covered roughly 48,000 compounds. About 1,200 (2.5%) were called active. Not shown: some 2% with an inconclusive outcome.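 The calls were made as follows: active = activation of at least 60% and not above a set upper limit (about 1 call in 100 departs from these limits); inconclusive = activation of 40% to 60%, or above that upper limit; inactive = activation under 40%.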 The list shows a part of the results.

molecular target: Probable G-protein coupled receptor 32 (Homo sapiens) (UniProt O75388); assay: qHTS for Agonists of Human Resolvin D1 Receptor DRV1; settings: CHO-K1 GPR32 beta-arrestin PathHunter luminescence, 90 min; at 76.9 µM; hits give high values; zero percent set by DMSO-only wells; also: 0% is about no effect
In short: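 PathHunter beta-arrestin recruitment in CHO-K1 cells stably expressing ProLink-tagged GPR32. Cells were exposed to compound for 90 min at 37 C, then chemiluminescence was read after 1 h detection at ambient temperature; DMSO served as basal control.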

Chain of UniProt O75388 (O75388 whole entry, looked up): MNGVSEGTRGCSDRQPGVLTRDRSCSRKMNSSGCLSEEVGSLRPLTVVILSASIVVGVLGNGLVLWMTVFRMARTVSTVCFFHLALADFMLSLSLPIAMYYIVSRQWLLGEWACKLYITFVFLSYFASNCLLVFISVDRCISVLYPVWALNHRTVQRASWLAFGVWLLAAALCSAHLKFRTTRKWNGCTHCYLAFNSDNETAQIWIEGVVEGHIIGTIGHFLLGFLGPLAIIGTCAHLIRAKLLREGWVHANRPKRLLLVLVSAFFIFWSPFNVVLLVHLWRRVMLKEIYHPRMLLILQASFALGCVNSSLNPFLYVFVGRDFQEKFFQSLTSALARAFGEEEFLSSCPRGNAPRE

| Structure (SMILES) | activation |
| --- | --- |
| CCOc1ccc(C(c2c(C)[nH]n(-c3ccccc3)c2=O)c2c(C)[nH]n(-c3ccccc3)c2=O)cc1OC | inactive: 6.9% |
| CCc1ccc(-c2cn3c(n2)sc2cc(C(=O)NCCCc4ccccc4)ccc23)cc1 | inactive: -2.19% |
| CCOC(=O)COc1ccc(CC)cc1C(=O)c1ccn2nc(-c3ccc(Cl)cc3)cc2n1 | inactive: 8.33% |
| CCOC(=O)c1c(NC(=O)C(C)Sc2cn(CCNC(=O)c3ccccc3OC)c3ccccc23)sc2c1CCC2 (stereo unspecified) | inactive: -5.47% |
| COC(=O)c1sc2cccc(F)c2c1S(=O)(=O)NCc1ccc(Cl)cc1 | inactive: -30.3% |
| Cc1ccc(CSc2ncc(Cl)c(C(=O)Oc3ccc(F)cc3)n2)cc1 | inactive: -2.24% |
| CCOc1ccc(NC(=O)Cn2c(=O)n(CCCC(=O)NCc3ccc4c(c3)OCO4)c(=O)c3ccccc32)cc1 | inactive: -12% |
| COc1ccc(-c2noc(N3CCN(c4ccc(C)cc4)C(C)C3)n2)cc1OC (stereo unspecified) | active: 60.8% |
| COc1cccc(CNC(=O)CSC2=Nc3ccccc3C3=NC(C)C(=O)N23)c1OC (stereo unspecified) | inactive: -8.02% |
| CCCCS(=O)(=O)c1oc(-c2ccc(F)cc2)nc1S(=O)(=O)c1ccccc1 | inactive: -16.3% |
| COc1ccccc1N1CCN(CCCNC(=O)c2cnn(-c3ccc(C)c(C)c3)c2C2CCN(C(=O)OC(C)(C)C)CC2)CC1 | inactive: -18.5% |
| COc1ccccc1CNC(=O)c1cnc2c(-c3ccccc3)c(C)nn2c1C | inactive: -13.7% |
| O=C(c1ccc2c(c1)N(Cc1ccc(F)cc1)C(=O)c1ccccc1S2(=O)=O)N1CCN(c2ccccn2)CC1 | inactive: 9.1% |
| COc1ccc(C(=O)Nc2ccccc2-c2nc(-c3ccc(OC)cc3)no2)cc1 | inactive: 4.49% |
| O=C(c1cnc(N2CCCCC2)c2ccccc12)N1CCN(c2ccc(Cl)cc2)CC1 | inactive: -34.2% |
| CCc1nn(CC(=O)N2CCN(c3ccc(Cl)cc3)CC2)c(=O)c2cc3occc3n12 | inactive: -24.2% |
| CCn1c(=O)n(-c2cccc(Cl)c2)c(=O)c2sc3ccccc3c21 | inactive: -4.92% |
| O=C(Nc1ccc(Cl)cc1)c1cc2nc(-c3ccc4c(c3)OCO4)cc(C(F)(F)F)n2n1 | inactive: -7.62% |
| CC(=O)c1ccc(N2CCN(C(=O)c3cc4ccc5cccnc5c4[nH]3)CC2)cc1 | inactive: -13% |
| Cc1cccc(NC(=O)C2CCCN(S(=O)(=O)c3ccc4c(c3)oc(=O)n4C)C2)c1 (stereo unspecified) | inactive: -16.8% |
| O=S(=O)(NCCS(=O)(=O)N1CCN(c2ccccc2)CC1)c1ccc(Cl)cc1 | inactive: -15.8% |

| Structure (SMILES) | activation |
| --- | --- |
| Cc1sc2c(c1C)c(=O)n(CCc1ccccc1)c(=O)n2Cc1ccc(F)cc1 | inactive: -4.44% |
| Cc1ccc(C)c(S(=O)(=O)NCCc2csc(-c3ccc(Cl)cc3)n2)c1 | active: 73.6% |
| COc1ccc(CCN2CC(C(=O)NCCc3ccccc3)CC2=O)cc1OC (stereo unspecified) | inactive: -11.5% |
| O=C(CCC(=O)c1ccccc1)Nc1ccc(F)c(Cl)c1 | inactive: 24.2% |
| COc1ccc(OC)c(/C=C(\C#N)c2nc3ccccc3c(=O)[nH]2)c1 | inactive: 14% |
| Cc1cc(C)c2sc(N(Cc3cccnc3)C(=O)CCOc3ccccc3)nc2c1 | inactive: -2.17% |
| CCCC(=O)C1=C(c2cccc(OC)c2)N(C(=O)CCC)n2c(C)nnc2S1 | inactive: -93.1% |
| CCOC(=O)c1ccc2c(c1)[C@@H]1C=CC[C@@H]1[C@H](c1cccc(OC)c1OC)N2 | inactive: -11.7% |
| COc1ccccc1CNC(=O)CN(c1ccc(C)cc1)S(=O)(=O)c1c(C)noc1C | inactive: 30.4% |
| O=C(Nc1c(-c2ccc(F)cc2)nc2ccccn12)c1cccc(F)c1 | inactive: -3.3% |
| Cc1c(C(=O)Nc2ccc(F)c(F)c2)oc2ccc(S(=O)(=O)N3CCC4(CC3)OCCO4)cc12 | inactive: 9.91% |
| CC(=O)Nc1ccc(NS(=O)(=O)c2ccc(Cl)s2)cc1 | inactive: -1.71% |
| Cc1nn(-c2ccc(F)cc2)c(-n2cccc2)c1C(=O)N1CCN(c2ccccc2F)CC1 | inactive: -0.0295% |
| COc1ccc(OC)c(NC(=O)c2cnc(N3CCCC3)nc2C)c1 | inactive: 1.98% |
| CCCCc1ccc(NS(=O)(=O)c2ccc(N3CCCCS3(=O)=O)cc2)cc1 | inactive: -6.21% |
| CCOc1ccc(C(=O)c2cn(Cc3ccccc3)c3c(F)cc(F)cc3c2=O)cc1 | inactive: 2.59% |
| Cc1ccc(C2C=C(c3ccc(F)cc3)Nc3nc(CCCO)nn32)cc1 (stereo unspecified) | inactive: -11.8% |
| CCCOc1ccc(NC(=O)CC2C(=O)N(c3ccc(C)cc3)C(=O)N2C2CCCC2)cc1 (stereo unspecified) | inactive: -2.09% |
| CCSc1ncc(Cl)c(C(=O)N(Cc2ccccc2)Cc2ccco2)n1 | inactive: -35% |
| O=C(CN1C(=O)CCc2cc(S(=O)(=O)N3CCOCC3)ccc21)NCc1ccccc1Cl | inactive: -24.9% |
| CCSc1nnc2c(n1)OC(c1sccc1C)N(C(C)=O)c1ccccc1-2 (stereo unspecified) | inactive: 0.754% |

| Structure (SMILES) | activation |
| --- | --- |
| CC1=C(C(=O)Nc2cc(Cl)ccc2C)C(c2ccco2)n2ncnc2N1 (stereo unspecified) | inactive: -7.97% |
| COc1ccc(Cn2c(=O)c3oc4ccccc4c3n(Cc3cccc(F)c3)c2=O)cc1 | inactive: -16.2% |
| CCOC(=O)C1CCCN(S(=O)(=O)c2cc3c(cc2C)NC(=O)CO3)C1 (stereo unspecified) | inactive: -7.18% |
| O=C(NCc1cccc(F)c1)c1ccc2nc(N3CCCCC3)sc2c1 | inactive: 8.91% |
| Cc1c(C)n(C)c2ccc(C(=O)NCCc3ccc(Cl)cc3)cc12 | inactive: -23.9% |
| COC(=O)c1c(C)oc2ccc(N(C(=O)Oc3ccccc3)S(=O)(=O)c3ccc(C(C)(C)C)cc3)cc12 | inactive: 6.75% |
| CCN(CC)CCNC(=O)c1ccc(NS(C)(=O)=O)cc1 | inactive: -5.26% |
| O=C(NCCc1ccc(Cl)cc1)c1ccc2c(c1)N(Cc1c(F)cccc1Cl)C(=O)CS2 | inactive: 7.83% |
| CCn1ccc2cc(S(=O)(=O)N3CCCN(C(=O)NCC(=O)OC)CC3)ccc21 | inactive: 9.16% |
| COc1cccc(-c2cc(C(F)(F)F)n3nc(C)c(-c4ccccc4)c3n2)c1 | inactive: 8.6% |
| Cc1ccccc1C(=O)NC1(C(F)(F)F)N=C(c2ccccc2)N(Cc2ccccc2)C1=O (stereo unspecified) | inactive: -17.7% |
| CCCCNC(=O)CSc1nc2cc3c(cc2c(=O)n1CCCCCC(=O)NCCc1ccc(OC)c(OC)c1)OCO3 | inactive: -8.27% |
| Cc1ccc2nc(N3CCC(C(=O)NCc4ccc(F)cc4)CC3)[nH]c2c1 | inactive: -14.3% |
| CCc1ccccc1N(C)C(=O)c1nn(C)c2c1CSc1ccccc1-2 | inactive: -10.8% |
| O=C(COc1ccccc1[N+](=O)[O-])Nc1cc(-c2nc3cc(Cl)ccc3o2)ccc1Cl | inactive: 6.92% |
| COC(=O)c1ccc(Oc2nc3c(c(=O)n(C)c(=O)n3C)n2C(C)C)cc1 | inactive: -4.21% |
| Cc1cc(C)c(S(=O)(=O)NCc2csc(-c3ccccc3)n2)c(C)c1 | inactive: -24.9% |
| Cc1ccc2nc(COc3cccc(NC(=O)c4cccc(Cl)c4)c3)cc(=O)n2c1 | inactive: 6.96% |
| CCC12CN3CC(C)(CN(C1)C3c1c[nH]c3ccc(OC)cc13)C2=O (stereo unspecified) | inactive: -10.7% |
| Cc1ccc2cccc(NC(=O)c3ccc(C#N)cc3F)c2n1 | inactive: -0.835% |
| Cc1ccc(OCC(=O)Nc2ccc3nc(SCC(=O)N4CCOCC4)sc3c2)cc1C | inactive: 0.0536% |

| Structure (SMILES) | activation |
| --- | --- |
| CCC(Sc1nc2cc3c(cc2c(=O)n1CCCC(=O)NCc1ccc(OC)cc1)OCO3)C(=O)NCCCOC (stereo unspecified) | inactive: -14.8% |
| CCOC(=O)C1CCCN(C(=O)CCS(=O)(=O)c2cc3c(cc2Cl)NC(=O)CO3)C1 (stereo unspecified) | inactive: -4.25% |
| CCN(CC)C(=O)c1sc2c(c1C)c(=O)n(-c1ccc(C)c(C)c1)c(=O)n2Cc1cccc(Cl)c1 | inactive: -6.41% |
| O=C1CN(C(=O)c2ccc(S(=O)(=O)N3CCCCC3)cc2)C(c2ccc(F)cc2)c2cc(Br)ccc2N1 (stereo unspecified) | inactive: -19.5% |
| CC(=O)N1CCc2cc(CNS(=O)(=O)c3ccc(C(C)(C)C)cc3)ccc21 | inactive: -3.8% |
| Cc1ccccc1NC(=O)Cn1c(=O)n(CCC(=O)NCc2ccc3c(c2)OCO3)c(=O)c2sccc21 | inactive: -15.1% |
| Cn1ccc2c(OCC(=O)Nc3ccc([N+](=O)[O-])cc3)cccc2c1=O | inactive: 2.03% |
| CSc1ccc(CNC(=O)CN2C(=O)C3CCCCN3c3ccc(C(=O)N4CCCC4)cc32)cc1 (stereo unspecified) | inactive: -32.1% |
| CCOC(=O)C1CCN(C(=O)c2ccc3c(c2)sc2nc(-c4ccc(C)cc4)cn23)CC1 | inactive: -3.18% |
| FC(F)(F)c1ccc(-c2noc(-c3ccccc3Br)n2)cc1 | inactive: 16% |
| CCc1ccc(NC(=O)C2CCN(S(=O)(=O)c3c(C)noc3/C=C/c3ccco3)CC2)cc1 | inactive: -32.9% |
| COc1ccc(-c2nc3cc(C(C)C)ccc3o2)cc1NC(=O)c1ccc(C)c(Cl)c1 | inactive: -4.76% |
| O=S(=O)(NCc1nc2cccnc2n1Cc1ccc(F)cc1)c1ccc(Cl)s1 | inactive: -25.6% |
| COc1ccc(NC(=O)c2cc(S(=O)(=O)NCCC3=CCCCC3)ccc2F)cc1 | inactive: 2.41% |
| COC(=O)c1cc2sc(C)cc2n1CC(=O)Nc1cccc(SC)c1 | inactive: 12.9% |
| Cc1ccc(CCNC(=O)c2ccc(CS(=O)(=O)Cc3cccc(C)c3)o2)cc1 | inactive: -6.33% |
| CCCCCC(=O)N(c1ccc(OCC)cc1)S(=O)(=O)c1ccc2c(c1)n(C)c(=O)n2C | inactive: -4.57% |
| COc1ccc(Cn2ccc3nc(C)c(C(=O)N4CCN(c5ccccc5F)CC4)cc3c2=O)cc1 | inactive: -13.6% |
